Results are given in words; binding and its absence hold for the method and conditions named. In cells and extracts the contact can be indirect. Some results given as binding are weak or reduced against the parent protein; the word gives no strength. Tags and fused reporters may be left off the sequences shown.
T1: GST-tagged full-length Ufo1 (^GSTFL-Ufo1) (yeast) (UniProt Q04511)
T1 sequence: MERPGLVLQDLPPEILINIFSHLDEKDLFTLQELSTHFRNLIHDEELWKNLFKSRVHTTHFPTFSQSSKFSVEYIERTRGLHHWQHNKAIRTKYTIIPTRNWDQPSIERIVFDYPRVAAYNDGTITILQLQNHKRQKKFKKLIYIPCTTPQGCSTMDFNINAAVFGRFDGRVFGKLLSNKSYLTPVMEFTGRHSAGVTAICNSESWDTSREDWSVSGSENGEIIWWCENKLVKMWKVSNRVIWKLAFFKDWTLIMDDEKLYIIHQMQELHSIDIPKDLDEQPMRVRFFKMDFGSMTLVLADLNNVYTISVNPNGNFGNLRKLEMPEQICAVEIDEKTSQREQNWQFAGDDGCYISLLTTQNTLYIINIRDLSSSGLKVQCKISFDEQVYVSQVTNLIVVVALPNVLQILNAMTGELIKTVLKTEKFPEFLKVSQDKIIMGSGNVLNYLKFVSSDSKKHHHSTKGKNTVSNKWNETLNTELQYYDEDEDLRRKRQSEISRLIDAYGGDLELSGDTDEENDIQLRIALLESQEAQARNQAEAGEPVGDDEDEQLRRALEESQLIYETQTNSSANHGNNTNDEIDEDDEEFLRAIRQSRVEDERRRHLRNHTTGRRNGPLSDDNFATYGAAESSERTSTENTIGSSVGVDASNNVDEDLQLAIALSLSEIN

T2: myc-tagged Cdc53 (^mycCdc53) (S. cerevisiae) (UniProt Q12018)
T2 sequence: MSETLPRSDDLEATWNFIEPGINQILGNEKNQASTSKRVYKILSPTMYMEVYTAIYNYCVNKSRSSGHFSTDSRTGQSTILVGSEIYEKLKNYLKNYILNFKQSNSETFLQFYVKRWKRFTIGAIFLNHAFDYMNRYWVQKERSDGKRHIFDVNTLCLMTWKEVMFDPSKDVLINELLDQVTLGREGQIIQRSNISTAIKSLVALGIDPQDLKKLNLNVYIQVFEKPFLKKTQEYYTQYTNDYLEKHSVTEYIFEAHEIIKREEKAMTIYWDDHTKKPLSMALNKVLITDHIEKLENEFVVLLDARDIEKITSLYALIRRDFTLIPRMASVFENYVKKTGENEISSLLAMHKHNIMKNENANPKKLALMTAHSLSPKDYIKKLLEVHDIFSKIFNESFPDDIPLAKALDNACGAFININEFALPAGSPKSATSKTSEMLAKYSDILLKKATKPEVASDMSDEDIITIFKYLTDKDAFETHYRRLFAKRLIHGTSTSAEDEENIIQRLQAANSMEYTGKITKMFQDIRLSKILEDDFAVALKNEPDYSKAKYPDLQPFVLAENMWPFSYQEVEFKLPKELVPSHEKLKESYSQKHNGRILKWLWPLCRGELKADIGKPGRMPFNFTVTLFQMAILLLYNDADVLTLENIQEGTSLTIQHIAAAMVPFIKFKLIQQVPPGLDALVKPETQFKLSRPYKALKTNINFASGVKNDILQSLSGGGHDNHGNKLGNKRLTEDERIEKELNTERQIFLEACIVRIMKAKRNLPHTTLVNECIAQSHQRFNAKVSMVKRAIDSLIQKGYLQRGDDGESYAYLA

T3: GFP-tagged Ho endonuclease (^GFPHo) (yeast) (UniProt P09932)
T3 sequence (chain, ubiquitylated as produced in yeast (sites not stated)): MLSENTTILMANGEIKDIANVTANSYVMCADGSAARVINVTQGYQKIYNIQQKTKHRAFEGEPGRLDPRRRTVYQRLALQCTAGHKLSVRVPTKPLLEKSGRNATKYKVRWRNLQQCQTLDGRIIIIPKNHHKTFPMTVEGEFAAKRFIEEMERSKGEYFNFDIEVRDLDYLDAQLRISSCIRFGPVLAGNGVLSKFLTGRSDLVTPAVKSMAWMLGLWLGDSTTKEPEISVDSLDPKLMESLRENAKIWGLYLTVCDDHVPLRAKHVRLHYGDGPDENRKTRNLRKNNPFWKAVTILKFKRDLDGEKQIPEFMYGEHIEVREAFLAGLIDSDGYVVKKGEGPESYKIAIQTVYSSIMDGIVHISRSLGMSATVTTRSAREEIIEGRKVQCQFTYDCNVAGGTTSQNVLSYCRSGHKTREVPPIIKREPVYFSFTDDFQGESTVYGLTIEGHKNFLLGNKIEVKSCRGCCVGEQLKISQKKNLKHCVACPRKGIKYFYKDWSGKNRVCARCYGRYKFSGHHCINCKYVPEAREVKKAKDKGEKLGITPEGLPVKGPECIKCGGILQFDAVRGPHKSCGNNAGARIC

T4: GST-tagged full-length Ddi1 (^GSTFL-Ddi1) (yeast) (UniProt P40087)
T4 sequence: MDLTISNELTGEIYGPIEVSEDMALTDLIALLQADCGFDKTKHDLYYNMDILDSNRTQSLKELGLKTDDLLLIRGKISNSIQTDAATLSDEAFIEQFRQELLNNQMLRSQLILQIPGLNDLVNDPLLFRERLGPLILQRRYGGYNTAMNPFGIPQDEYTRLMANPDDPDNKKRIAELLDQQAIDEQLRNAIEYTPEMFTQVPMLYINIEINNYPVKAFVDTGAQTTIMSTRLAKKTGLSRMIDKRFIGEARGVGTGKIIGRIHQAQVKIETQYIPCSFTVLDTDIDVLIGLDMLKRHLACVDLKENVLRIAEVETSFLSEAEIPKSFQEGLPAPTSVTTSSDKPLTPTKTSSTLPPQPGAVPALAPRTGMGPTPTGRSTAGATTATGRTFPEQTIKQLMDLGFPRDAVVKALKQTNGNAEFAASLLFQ

T5: GST-tagged Rpn10 (^GSTRpn10) (yeast) (UniProt P38886)
T5 sequence: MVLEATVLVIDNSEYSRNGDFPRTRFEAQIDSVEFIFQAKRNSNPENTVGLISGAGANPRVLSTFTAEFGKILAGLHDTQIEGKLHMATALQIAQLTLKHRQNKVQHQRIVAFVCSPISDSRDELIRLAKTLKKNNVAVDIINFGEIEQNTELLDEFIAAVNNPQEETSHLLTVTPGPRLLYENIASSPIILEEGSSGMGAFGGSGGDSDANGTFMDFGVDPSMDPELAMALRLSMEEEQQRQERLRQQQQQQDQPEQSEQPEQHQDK

B1: endogenous Ddi1 (protein, UniProt P40087 1-428)
chain: T4 sequence
B2: myc-tagged Cdc53 (^mycCdc53) (protein, UniProt Q12018 1-815)
chain: T2 sequence
B3: HIS-tagged Ufo1 (^HISUfo1) (protein, UniProt Q04511 1-668)
chain: T1 sequence

Assays:
[1] = target: T1, GST-tagged full-length Ufo1 (^GSTFL-Ufo1) (yeast); assay: pull-down; GST-Ufo1 or GST-Ufo1-WD40 on GSH beads incubated with yeast extract (wild type or ddi1Δ) with myc-Cdc53, a GFP-tagged 19S RP subunit and GFP-Ho present (Figures 2A, 2B, S2, S3); only the target purified
[2] = target: T1, GST-tagged full-length Ufo1 (^GSTFL-Ufo1) (yeast); assay: pull-down; as a3 but yeast extract (wild type or ddi1Δ) without GFP-Ho (Figures 2A, 2B); only the target purified
[3] = target: T1, GST-tagged full-length Ufo1 (^GSTFL-Ufo1) (yeast); assay: co-IP; as a6 but yeast extract without GFP-Ho; immunoprecipitated with anti-myc, anti-GST or anti-HIS (Figure 4, - Ho)
[4] = target: T2, myc-tagged Cdc53 (^mycCdc53) (S. cerevisiae); assay: as above
[5] = target: T3, GFP-tagged Ho endonuclease (^GFPHo) (yeast); assay: co-IP; bacterial lysates with HIS-Rpn1 and GST-Ufo1 mixed with yeast extract with myc-Cdc53 and GFP-Ho; aliquots immunoprecipitated with anti-myc, anti-GFP, anti-GST or anti-HIS and Protein A beads (Figure 4, + Ho)
[6] = target: T1, GST-tagged full-length Ufo1 (^GSTFL-Ufo1) (yeast); assay: as above
[7] = target: T2, myc-tagged Cdc53 (^mycCdc53) (S. cerevisiae); assay: as above
[8] = target: T4, GST-tagged full-length Ddi1 (^GSTFL-Ddi1) (yeast); assay: pull-down; recombinant GST fusion on GSH beads incubated with yeast extract, 4°C, 1-2 h, extract buffer (50 mM Tris-Cl pH 7.5, 150 mM NaCl, 5 mM EDTA, 0.1% NP40); washed with 2.5% Triton X100; Western blot (Figures 1A, 1B, 3A, 5E and 5F, extract alone); only the target purified
[9] = target: T5, GST-tagged Rpn10 (^GSTRpn10) (yeast); assay: pull-down; GST-Rpn1, GST-Rpn10 or GST on GSH beads incubated with yeast extract with myc-Cdc53 and GFP-Ho mixed with bacterial lysate with HIS-Ufo1 (Figure 3B); only the target purified

Binder | binding [1] | binding [2] | binding [3] | binding [4] | binding [5] | binding [6] | binding [7] | binding [8] | binding [9]
B1 | binds | binds | binds | binds | binds | binds | binds | – | –
B2 | binds | binds | no binding (condition: without GFP-Ho) | – | binds | binds | – | binds | binds
B3 | – | – | – | – | – | – | – | – | binds weakly

— paper PMC3398040
